22 molecules from PMC12136788 can be followed below.

To fix the notation:
T1: UNK ZnF1-3 (human, UniProt Q9C0B0 31-174)
T1 sequence: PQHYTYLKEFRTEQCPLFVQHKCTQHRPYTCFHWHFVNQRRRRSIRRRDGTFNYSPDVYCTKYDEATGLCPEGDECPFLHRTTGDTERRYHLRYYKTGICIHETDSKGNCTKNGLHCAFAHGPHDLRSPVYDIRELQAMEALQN

B1: chr5:37680062:37680063:+_ENSMUSG00000029121_ENSMUST00000031004|mus_hu|mus_mus_mus_hu_False|8_18 (ssRNA)
RNA: GGGAGUUCUACAGUCCGACGAUCUUUGGGUGUAGCUGGUACCUCGUACACAGGACCGUCAUACAUGCCCCUGGAAACCCCUUGCAAUCCAAAAACCUUAUUCCUGAUUUUGACGCGCUGGUAGAGAUGCUCUGGGAACGCCUUCAACAGAGGAUUGAGCAUCA
B2: chr10:71978566:71978567:-_ENSG00000180817_ENST00000373232|hu_mus|FALSE|FALSE (ssRNA)
RNA: GGGAGUUCUACAGUCCGACGAUCUAAAGGGUCCUUUGUAGCAAUCUCCAUUUUGGCGUUGGACCAGCGUGGAACCUCAACCACCAUGUGGAACACAUCCUUGUCUGCAUAAAUUGGAACAUCAUGAAAUGGAGAAAUGUACUGCAACAGAGGAUUGAGCAUCA
B3: chr6:86333760:86333761:-_ENSG00000135316_ENST00000355238|hu_hu|FALSE|FALSE (ssRNA)
RNA: GGGAGUUCUACAGUCCGACGAUCUUCUUCAAGAAUCUGUUCCUUGGUUUUACUCUUAGGAAUAGAGCCCACAAAAAGCCUAUUGUUGGCAACUGAGAUGCAGACACCAAUAUGUUUUCCAGAACGAAUUUCAUGAUUAUUAUACAACAGAGGAUUGAGCAUCA
B4: chr11:86132931:86132932:-_ENSMUSG00000034297_ENSMUST00000043624|mus_hu|FALSE|FALSE (ssRNA)
RNA: GGGAGUUCUACAGUCCGACGAUCUCCAAAAGGUCCAACUGGAUCAUCCUUGAAUUUAUCACUUGGAAGUUGAGGUGGUAAAAACUCUACAUCUUUUUUCUUUGGGAACUUGUAAUACUUCCAGGCUAUAUUGGCUUCAUCUUCCAACAGAGGAUUGAGCAUCA
B5: chr11:30000241:30000242:-_ENSMUSG00000020315_ENSMUST00000011877|mus_mus|motif|central (ssRNA)
RNA: GGGAGUUCUACAGUCCGACGAUCUAUUUCCAACACAGCCUCACAAAAUUGAGGAACAGUUUAAAUACUGAGAUCGGAUCGGUAUAAUUUCAUUAAAAAAAUCUGGCCUUCCCUCUGUACCUCAAACUUUUUAAACUUGGAGAUCAACAGAGGAUUGAGCAUCA
B6: chr3:180328061:180328062:+_ENSG00000163728_ENST00000412756|hu_hu|FALSE|FALSE (ssRNA)
RNA: GGGAGUUCUACAGUCCGACGAUCGCUCAUGUCUACUGAAAUCACGUGAUCCAGAGUGAGCGUAUUUUUUGUAUUUCUCAACUGACUUCCAAGAGUAUUCUGAGCUUGCUGGUGAGGUAGAAUGCCUCACAGAACCUGGUUCCCCAACAGAGGAUUGAGCAUCA
B7: chr7:75932113:75932114:+_ENSG00000106211_ENST00000248553|hu_hu|hu_hu_hu_mus_False|38_48 (ssRNA)
RNA: GGGAGUUCUACAGUCCGACGAUCCUGCGACCACUCAUCGGGCAACCGGGGCACCCCGAAAGCUUGAUCGAAGAGGCGGCUGUGUGCGUACCAGUCGCGGAAGGGGUGUUCCCAGCUCGGGCUCCGCAGCAGCGAGAAGGGCACCAACAGAGGAUUGAGCAUCA
B8: chr15:31439531:31439532:-_ENSMUSG00000039100_ENSMUST00000090227|mus_hu|FALSE|FALSE (ssRNA)
RNA: GGGAGUUCUACAGUCCGACGAUCAAAUCUGUGCUUGCAUAAUUCACAGUAUUCUUUUCGACUGUGUUUCAGCCAUUGAACUAAGCAUUCUUGAUGGAUAAACUUAAUACUGCCAGUACAUACACAAGGAUGAUAAAGCGGUUUCAACAGAGGAUUGAGCAUCA
B9: chr15:12753431:12753432:-_ENSMUSG00000022195_ENSMUST00000057256|mus_hu|FALSE|FALSE (ssRNA)
RNA: GGGAGUUCUACAGUCCGACGAUCUGGAUGUGAGUCGAAAUGUAAAAAACUUACAUUACUGGCAGGAAGAUGCUUUGAGCCUAUGGCCCGGUAUAUAAAGGGUAGAACCUCCUGAUGAUCCUCCACCACCCACACUGGGAGCUUCAACAGAGGAUUGAGCAUCA
B10: chr1:180793972:180793973:+_ENSG00000143324_ENST00000367589|hu_hu|FALSE|FALSE (ssRNA)
RNA: GGGAGUUCUACAGUCCGACGAUCGAGUACAUGGUUUACUCCAGCCUGUCUCCAACCAUACGUGUUGAUGCCCAGUAGAAAAAGGAAUUCAAUCAGAAGAAAGCCACCCCGAUAGAUUCUUAUCAAGGGCCAUAUACUUCUAUCCAACAGAGGAUUGAGCAUCA
B11: 129497756_129516252_352_5pUTR_ENSMUSG00000028788_ENSMUST00000030578|mouse|control|control (ssRNA)
RNA: GGGAGUUCUACAGUCCGACGAUCUAAAUGUGCAACGUAUAUUCCAACGAAAAACGCUGGCAAGCUGGGGACUGGGCAUUGAAGGCCGGCGGAGGCGGGAGCGAGGAGGCGCCUCUCUCCUCAGUCACCUCGGCGGCGGCGGCGCAACAGAGGAUUGAGCAUCA
B12: chrX:71549400:71549401:+_ENSMUSG00000019087_ENSMUST00000019231|mus_hu|mus_mus_mus_hu_False|68_98 (ssRNA)
RNA: GGGAGUUCUACAGUCCGACGAUCGCAGUAGGAAGAGCAAACCUUUCCAGUCCAGUGCGCUGCAGGGAGAAACAUGAACAACACGGACACCGUCCCACCCUCAACCCCCCCACUGGCACAGGGUCACACAAUCUGGGUCAAAGACAACAGAGGAUUGAGCAUCA
B13: chr3:121486967:121486968:-_ENSMUSG00000028127_ENSMUST00000029770|mus_mus|motif|central (ssRNA)
RNA: GGGAGUUCUACAGUCCGACGAUCUCCAAUUGCACUUGUUAACUUGAAAAUAUAUAAAACUAUGUCUAAAAAUGGCUUACGGAGAUUUGAAUACAGAUCGACUACACUGUUACAAAAUUUUUCUACAUCCUGUGUAAGCAGCUGCAACAGAGGAUUGAGCAUCA
B14: chrX:20248820:20248821:+_ENSMUSG00000001924_ENSMUST00000001989|mus_mus|mus_mus_mus_hu_True|48_108 (ssRNA)
RNA: GGGAGUUCUACAGUCCGACGAUCGGCAAAGUCAGUCACCACAAAGUCAGGUUCUGCCAGUGAGGCCACCAAGGAUUUAAAGCUAAUCUUUUUCGGUACUUUGACCUGACUGACGAUGCCUCCACGGAUGUAGUCGGAGAAGUUCAACAGAGGAUUGAGCAUCA
B15: chr16:94651144:94651145:+_ENSMUSG00000040785_ENSMUST00000117648|mus_hu|mus_mus_mus_hu_True|8_8 (ssRNA)
RNA: GGGAGUUCUACAGUCCGACGAUCAUUUUCUUGAAUCAAGUGGCGAAUAACAUAGUCCACUGCUUCAUUUAGAAAAUUUCUGCUAGAAAAACAGGUUGUAUAGUCUUCUGUGCUCAAAACUUUCCAAGAGAGCAGCUCUUUGAGCAACAGAGGAUUGAGCAUCA
B16: 61873076_61873196_2987_3pUTR_ENSMUSG00000024580_ENSMUST00000062991|mouse|control|control (ssRNA)
RNA: GGGAGUUCUACAGUCCGACGAUCGAUCCCAGAGCCAAUCUGACGAAGGCCAAGAAUCAGGGCUGGUAGAACCAGCCACUGUAGGUAAUUAGCUAUACGAAUGUUAUUUGGGUCAUUUGCUGUUGGCGCUGCCUAAAAUUGCUUCAACAGAGGAUUGAGCAUCA
B17: chr1:180251892:180251893:+_ENSMUSG00000026500_ENSMUST00000027781|mus_hu|motif|central (ssRNA)
RNA: GGGAGUUCUACAGUCCGACGAUCUGAACCAUACAAUAUUGAAUGCCGGGCGCAGGGAGUAUUUUCAACAUCUAAAAAUCCGGGGAGCUUAAGGGACUUCCAAUAUGAUAAAUGUAACGACGUACAAGAUGCCUUCCUCUCCUCCAACAGAGGAUUGAGCAUCA
B18: 46277305_46277425_453_CDS_ENSMUSG00000037697_ENSMUST00000051310|mouse|control|control (ssRNA)
RNA: GGGAGUUCUACAGUCCGACGAUCGGGGCCCCCUCCCGCCGCCCCGCCGCCCCCCGAGUUCUGGGCGACGAGCGGCGGCGGAGGCGAAGAAGAGCUGCCGCCGCCCGCGCUCUCGCCCUCGCUGUAGUAGCGCAACGACGAGCCCAACAGAGGAUUGAGCAUCA
B19: chr1:120316390:120316391:+_ENSMUSG00000064302_ENSMUST00000049404|mus_mus|FALSE|FALSE (ssRNA)
RNA: GGGAGUUCUACAGUCCGACGAUCCAACAGGGUCUGGUCGUGCUCAAGGUCAGCAGACUUCUGUCUGUCUGAGAAAUAGUCUAUGAGUUCCUGGCCAACCUGCAGCCGCUUUCCCACAUCCUUCUGCAGCACCUGGGCCAGACACAACAGAGGAUUGAGCAUCA
B20: chr1:171484892:171484893:+_ENSG00000117523_ENST00000367742|hu_hu|motif|central (ssRNA)
RNA: GGGAGUUCUACAGUCCGACGAUCUUUUUUUUCCUGAUCCCCAGCUGCCUGCAGGCUGGGAAAUUCUUGCUGAAACUGACGGUUCACUUGGAUUCCAUCUCCUUGCCCACCUUGCUUGUUACUGGCCCAUGAUUUGGGAGCAGGCAACAGAGGAUUGAGCAUCA
B21: chr19:27315782:27315783:+_ENSMUSG00000024924_ENSMUST00000167487|mus_hu|FALSE|FALSE (ssRNA)
RNA: GGGAGUUCUACAGUCCGACGAUCAGCCGCAUCAGUCCAGUAGAUGGUCUUGUACACCCAAUCAACAGCAAUGGCUGCAGGAUUAUAGACAUUGUCGAUCAUUUUAACAUGUCUACCAACCUUGUCAUCAAUUGAGGCACUGAACAACAGAGGAUUGAGCAUCA
B22: chr17:64801638:64801639:+_ENSG00000154229_ENST00000413366|hu_mus|hu_hu_hu_mus_False|68_98 (ssRNA)
RNA: GGGAGUUCUACAGUCCGACGAUCUAUAUAUAUAUAUAUAUACACACACAUAUAUAGUAAAACCCUAAUCUAUCACGUAAAGUAGCCAUUCAUUUUUAAAAUUACAUCUACAUUAAAAAAUUAAUAUAUCUGAUAGAGUGCCAGCAACAGAGGAUUGAGCAUCA

Some of the results follow.

The target of this assay is T1, UNK ZnF1-3. Briefly: nsRBNS (natural sequence RNA bind-n-seq); RBNS binding buffer (assumed for nsRBNS): 25 mM Tris pH 7.5, 150 mM KCl, 3 mM MgCl2, 0.01% Triton X-100, 500 ug/ml BSA, 20 U/ml SUPERase-In, 4 C; UNK is unkempt and MSI1 is Musashi-1; names of the RNAs are library labels; protein concentration not given here; high values mean tight binding.
As for B1, the binding signal is 0.951 enrichment R.

For B2, the binding signal turned out to be 0.893 enrichment R.

Consider B3, for which the binding signal was found to be 0.789 enrichment R.

B4 showed a binding signal of 0.684 enrichment R.

For B5, the binding signal amounted to 1.94 enrichment R.

For B6, the binding signal is 0.88 enrichment R.

Consider B7, for which the binding signal came out at 0.676 enrichment R.

On to B8, for which the binding signal was found to be 0.866 enrichment R.

With B9, the binding signal was 1.22 enrichment R.

As to B10, the binding signal came to 0.777 enrichment R.

For B11, the binding signal worked out at 1.99 enrichment R.

The molecule B12 showed a binding signal of 2.26 enrichment R.

In the case of B13, the binding signal stood at 1.61 enrichment R.

Turning to B14, the binding signal came to 0.897 enrichment R.

For the molecule B15, the binding signal worked out at 0.752 enrichment R.

In the case of B16, the binding signal stood at 0.978 enrichment R.

B17 had a binding signal of 1.53 enrichment R.

Regarding B18, the binding signal was found to be 0 enrichment R.

As to B19, the binding signal worked out at 1.16 enrichment R.

B20 displayed a binding signal of 0.667 enrichment R.

The molecule B21 returned a binding signal of 0.414 enrichment R.

Molecule B22 returned a binding signal of 1.83 enrichment R.
